Measured values: the antibiotic and cytotoxicity screens of Wong et al. (2023)
Some of the results follow.

What follows are compounds tested on HSkMC (human skeletal muscle cells) (assay: cytotoxicity call (relative viability < 0.9)). Conditions: 10 µM.

Row | Structure (SMILES) | cytotoxicity call
1 | Cn1cc(-c2cc3c(N4CCN(c5ncc([C@@](C)(N)c6ccc(F)cc6)cn5)CC4)ncnn3c2)cn1 | inactive
2 | Cn1cnc(S(=O)(=O)N2C[C@@H](O)COC[C@@H]3O[C@@H](CC(=O)NC4CCC4)CC[C@H]32)c1 | inactive
3 | O=C(C[C@@H]1CC[C@@H](NC(=O)c2cccnc2)[C@@H](CO)O1)NCCN1CCCCC1 | inactive
4 | C[C@@H]1CCCCO[C@H](CN(C)Cc2ccccc2)[C@H](C)CN([C@H](C)CO)C(=O)c2cc(NC(=O)Cc3ccccc3)ccc2O1 | inactive
5 | CO[C@H]1CN(C)C(=O)c2cc(NC(=O)c3ccc(F)cc3)ccc2OC[C@@H](C)N(C(=O)CN(C)C)C[C@@H]1C | inactive
6 | Cc1noc(C)c1S(=O)(=O)Nc1ccc2c(c1)CC(=O)N([C@H](C)CO)C[C@@H](C)[C@@H](CN(C)S(=O)(=O)c1cn(C)cn1)O2 | inactive
7 | C[C@@H]1CN([C@@H](C)CO)C(=O)c2cccc(NC(=O)c3cnccn3)c2O[C@@H]1CN(C)S(=O)(=O)c1ccc(Cl)cc1 | inactive
8 | COc1ccc(S(=O)(=O)Nc2cccc3c2O[C@H](CN(C)Cc2ccncc2)[C@H](C)CN([C@H](C)CO)C3=O)cc1 | inactive
9 | C[C@@H]1CN([C@H](C)CO)C(=O)c2cc(NC(=O)Cc3ccccc3)ccc2O[C@@H](C)CCCCO[C@@H]1CN(C)C(=O)CCC(F)(F)F | inactive
10 | C[C@@H]1CN([C@H](C)CO)C(=O)c2cc(NC(=O)Nc3ccc4c(c3)OCO4)ccc2O[C@@H]1CN(C)Cc1ccc(C(=O)Nc2ccccc2N)cc1 | inactive
11 | C[C@H](CO)N1C[C@H](C)[C@H](CN(C)Cc2ccc3c(c2)OCCN3C)OCc2cnnn2CCCC1=O | inactive
